Assay results taken from the supplement of paper PMC12217912.
The other results are listed elsewhere or left out. The full chains were built here from the parent and the listed change. Values near 0.05 are background.

B1: TEV protease; numbered along this chain (parent)
chain: MGESLFKGPRDYNPISSSICHLTNESDGHTTSLYGIGFGPFIITNKHLFRRNNGTLVVQSLHGVFKVKDTTTLQQHLVDGRDMIIIRMPKDFPPFPQKLKFREPQREERICLVTTNFQTKSMSSMVSDTSCTFPSGDGIFWKHWIQTKDGQCGSPLVSTRDGFIVGIHSASNFTNTNNYFTSVPKNFMELLTNQEAQQWVSGWRLNADSVLWGGHKVFMVKPEEPFQPVKEATQL

Variants of: B1
Test: raw area under fraction-flipped curve 0-4 h after induction (AUC4h, not background-subtracted), DNA-recorder readout of cleavage of the substrate (dimensionless); higher = more cleavage of the substrate by the protease variant
Conditions: temperature: 34 °C; time window: 0-4 h after rhamnose induction
Experimental: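 In vivo DNA recorder in E. coli TOP10(DE3) ΔrhaA at 34 °C. Each TEVp single-site mutant (parent TEVp 0) is paired with a single-site variant of the 7-mer TEVs (canonical ENLYFQ|S). The substrate sits between flexible linkers in a Bxb1-sfGFP-TEVs-SsrA fusion, so cleavage stabilises Bxb1 and speeds flipping of a recombination array, read by NGS. The value is the raw area under the fraction-flipped curve over 0-4 h after rhamnose induction (AUC4h), with ≥20 reads per time point. It is not background-subtracted; inactive controls average about 0.047.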
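Note: Bxb1 expression induced with 0.2% (w/v) L-rhamnose at OD600 near 0.5, cultures sampled hourly, flipped fraction per protease–substrate barcode pair counted by paired-end Illumina sequencing.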

Variant | area with substrate ENLYAQS | area with substrate ENLYEQS | area with substrate ENLYKQS | area with substrate ENLYMQS | area with substrate ENLYPQS | area with substrate ENLYRQS | area with substrate ENLYGQS | area with substrate ENLYIQS | area with substrate ENLYNQS | area with substrate ENLYQQS
I85A | 0.0635 | 0.0579 | 0.0607 | 0.0572 | 0.06 | 0.059 | – | – | – | –
R87T | 0.0507 | 0.0412 | 0.0647 | – | 0.0705 | 0.0519 | 0.0643 | 0.0656 | 0.066 | 0.0589
F92L | 0.0677 | – | 0.0597 | 0.1 | 0.061 | 0.0578 | 0.0438 | – | 0.0767 | –
F92N | 0.0628 | 0.0555 | – | 0.105 | 0.0561 | 0.0539 | – | 0.118 | 0.0072 | –
P93C | 0.0871 | 0.0589 | – | – | – | 0.0591 | – | 0.143 | 0.0578 | –
P93L | 0.0644 | – | – | – | – | – | – | 0.105 | 0.0864 | –
P94V | 0.0739 | 0.0636 | – | 0.12 | 0.0732 | 0.0551 | 0.0468 | – | 0.0832 | –
F95L | 0.0719 | 0.0647 | – | – | 0.0683 | – | – | – | – | –
Q97C | 0.0665 | – | – | – | – | – | – | 0.158 | – | –
K98R | 0.0753 | – | 0.0677 | – | 0.0757 | – | 0.0761 | 0.129 | 0.0718 | 0.0609
L99K | 0.0513 | – | 0.0622 | – | 0.0553 | – | – | – | – | –
L99N | 0.0761 | – | – | 0.0954 | – | – | – | 0.122 | 0.0475 | –
K100D | 0.0649 | 0.0688 | 0.0707 | 0.126 | – | 0.0583 | – | – | 0.0545 | –
E103D | 0.0898 | – | 0.0485 | 0.0876 | – | 0.0553 | 0.056 | – | 0.0648 | –
E103M | 0.0702 | 0.0625 | 0.0431 | 0.0799 | 0.063 | 0.0631 | 0.0629 | – | 0.0786 | –
I110R | 0.0547 | – | 0.0573 | – | – | – | 0.0559 | – | – | –
T114L | 0.0739 | – | 0.0287 | 0.0829 | – | 0.0643 | – | 0.142 | – | –
T115Q | 0.0826 | 0.102 | 0.0301 | 0.107 | – | – | 0.0646 | 0.123 | 0.0767 | 0.0725
Q118W | 0.0764 | 0.0622 | – | – | – | 0.0583 | 0.0673 | – | – | –

Variant | area with substrate ENLYAQS | area with substrate ENLYEQS | area with substrate ENLYKQS | area with substrate ENLYMQS | area with substrate ENLYPQS | area with substrate ENLYRQS | area with substrate ENLYGQS | area with substrate ENLYIQS | area with substrate ENLYNQS | area with substrate ENLYQQS
T119Q | 0.0833 | – | – | – | – | – | – | – | – | –
M125W | 0.0528 | 0.048 | 0.0826 | – | 0.0739 | – | 0.0566 | – | 0.0676 | –
T129K | 0.0666 | 0.067 | 0.0637 | – | – | – | 0.0815 | 0.121 | 0.0773 | –
C131W | 0.0645 | – | 0.0531 | – | 0.0809 | – | – | – | – | –
D137H | 0.0614 | 0.0743 | – | 0.0946 | – | – | 0.0604 | 0.135 | 0.0664 | –
D137Q | 0.0542 | 0.0937 | 0.067 | – | 0.0713 | – | 0.0881 | 0.114 | 0.0617 | –
D137S | 0.0633 | – | 0.0153 | – | – | – | – | – | 0.0572 | 0.0762
G138P | 0.072 | – | 0.0485 | – | 0.0805 | – | 0.0568 | – | 0.0568 | 0.0599
G138T | 0.121 | 0.068 | 0.0233 | – | – | – | – | – | – | –
G138Y | 0.0697 | 0.0598 | 0.0636 | 0.0291 | 0.0707 | – | 0.0483 | – | 0.0689 | –
F140S | 0.0681 | 0.06 | 0.0628 | – | – | 0.06 | – | 0.0436 | – | –
W141F | 0.077 | 0.0602 | 0.0628 | 0.0717 | 0.0685 | 0.0532 | 0.0758 | 0.0983 | 0.0664 | –
I145G | 0.0626 | – | – | 0.118 | 0.072 | 0.0845 | – | – | 0.059 | –
G153I | 0.0189 | – | 0.0453 | – | 0.0452 | 0.0537 | – | – | – | 0.0564
G153M | 0.0331 | 0.057 | – | 0.0542 | 0.0393 | – | – | 0.0389 | – | 0.059
S158V | 0.0559 | 0.0532 | 0.0199 | – | 0.0549 | – | – | 0.0629 | 0.0479 | –
F163M | 0.0678 | – | 0.104 | – | – | 0.0571 | – | – | 0.0681 | 0.0551
G166E | 0.064 | – | 0.0178 | – | – | – | – | – | 0.0485 | 0.0458
S169K | 0.0659 | – | – | – | – | – | – | – | – | –

Same assay, conditions: temperature: 34 °C; time window: 0-4 h after rhamnose induction

Variant | area with substrate ENLYSQS | area with substrate ENLYTQS | area with substrate ENLYWQS | area with substrate ENLYHQS | area with substrate ENLYVQS | area with substrate ENLYYQS | area with substrate ENLYDQS | area with substrate ENLYLQS | area with substrate ENLYCQS
R87T | 0.0741 | 0.0648 | 0.0609 | – | – | – | – | – | –
F92L | – | – | – | 0.0734 | 0.122 | 0.0924 | – | – | –
F92N | 0.0757 | – | – | 0.0682 | – | – | 0.0507 | – | –
P93C | – | – | – | 0.0698 | – | 0.0749 | – | – | –
P93L | – | – | – | 0.0628 | – | 0.0669 | – | – | –
P94V | – | 0.0936 | – | – | 0.0967 | 0.0877 | – | – | –
F95L | – | – | – | 0.0836 | – | – | – | – | –
Q97C | – | 0.0845 | – | 0.0487 | 0.109 | – | – | – | –
K98R | – | 0.0996 | 0.0727 | 0.0649 | 0.121 | 0.0637 | 0.0551 | 0.0824 | –
L99K | 0.0447 | – | 0.0529 | 0.0545 | 0.115 | – | – | – | –
L99N | – | 0.079 | 0.0723 | – | – | – | 0.0601 | 0.0722 | 0.0798
K100D | 0.0773 | – | 0.0696 | 0.0754 | 0.132 | 0.0753 | – | 0.0761 | –
E103D | 0.0798 | 0.0845 | 0.0683 | – | – | 0.0547 | – | 0.0859 | –
E103M | 0.0674 | 0.0606 | 0.0672 | 0.0608 | 0.114 | 0.0459 | 0.0606 | 0.0748 | –
I110R | 0.0666 | – | 0.0807 | – | – | – | 0.0554 | – | –
T114L | – | 0.0836 | 0.0856 | 0.07 | 0.136 | – | – | – | –
T115Q | – | 0.0955 | 0.0908 | 0.0714 | 0.124 | – | 0.0638 | 0.0875 | –
Q118W | – | – | 0.0679 | 0.0784 | 0.117 | – | 0.072 | – | 0.0785

Variant | area with substrate ENLYSQS | area with substrate ENLYTQS | area with substrate ENLYWQS | area with substrate ENLYHQS | area with substrate ENLYVQS | area with substrate ENLYYQS | area with substrate ENLYDQS | area with substrate ENLYLQS | area with substrate ENLYCQS
M125W | – | – | – | 0.046 | – | – | 0.0653 | 0.0746 | –
T129K | – | – | 0.0674 | 0.064 | 0.0961 | 0.069 | – | 0.0655 | –
C131W | – | – | 0.0515 | – | – | – | 0.0665 | – | –
D137H | – | 0.234 | – | 0.0641 | – | – | 0.0881 | 0.0831 | –
D137Q | 0.0735 | 0.0647 | – | – | 0.103 | – | 0.0639 | – | –
D137S | – | 0.13 | 0.0584 | – | – | – | – | 0.0855 | –
G138P | – | – | 0.0664 | 0.0221 | – | – | 0.0537 | – | –
G138T | – | – | – | 0.0394 | – | – | – | – | –
G138Y | 0.0649 | – | – | 0.0556 | 0.0784 | – | – | 0.0736 | –
F140S | – | – | – | 0.0785 | – | – | – | – | 0.0682
W141F | 0.0591 | 0.0848 | – | 0.0536 | 0.115 | 0.0485 | 0.0616 | – | 0.0669
I145G | – | 0.0731 | – | – | 0.107 | 0.0648 | – | – | –
G153I | – | – | 0.0628 | – | – | – | – | – | –
G153M | – | – | 0.0565 | 0.0466 | – | – | – | – | –
S158V | 0.0513 | 0.09 | – | 0.046 | 0.0669 | – | – | – | 0.0566
F163M | – | 0.0921 | 0.0878 | 0.0606 | – | – | – | – | –
G166E | – | 0.0622 | – | 0.0485 | – | 0.0515 | 0.0552 | – | 0.0597
S169K | – | – | 0.0146 | – | 0.0564 | – | 0.0606 | – | –
